{"source": "the supplement of paper PMC10037445", "key": {"RAW-Dual [1]": {"test_system": "RAW-Dual", "assay": "IRF Lucia reporter activity, fold change vs agonist alone; higher = enhanced IRF activity", "details": "agonist: MPLA (TLR4) […]", "method_in_brief": "(§1)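 Reporter activity is given as fold change relative to agonist-alone wells. To measure it, 50 nL of library stock was pin-tooled onto RAW-Dual macrophages (50,000 cells/well, DMEM, 384-well plates), a PRR agonist followed 1 h later, and cells stayed at 37 °C, 5% CO2. Twenty hours on, supernatant was assayed for IRF (QuantiLuc luminescence) and NF-κB (QuantiBlue, 620 nm absorbance), and wells under 70% of agonist-control IncuCyte confluency in both mask sets were marked cytotoxic.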"}, "RAW-Dual [2]": {"test_system": "RAW-Dual", "assay": "IRF Lucia reporter activity, fold change vs agonist alone; cytotoxicity flag (confluency mask): not cytotoxic; higher = enhanced IRF activity", "method_in_brief": "as §1"}, "RAW-Dual [3]": {"test_system": "RAW-Dual", "assay": "IRF Lucia reporter activity, fold change vs agonist alone; cytotoxicity flag (confluency mask): cytotoxic (confluency <70% of control); higher = enhanced IRF activity", "method_in_brief": "as §1"}, "[4]": {"details": "library stock concentration (final ~1000-fold dilution): 10 mM, cytotoxicity flag (confluency mask): not cytotoxic"}, "[5]": {"details": "agonist: 3'3'-cGAMP (STING) 10 ug/mL"}, "[6]": {"details": "library stock concentration (final ~1000-fold dilution): 10 mM, cytotoxicity flag (confluency mask): cytotoxic (confluency <70% of control)"}}, "note": "“And” between values parts separate entries of the source, which are not always exact repeats. Identical values can stand only once. ± gives the standard deviation of the averaged measurements. Over roughly 2,900 compounds, “IRF Lucia reporter activity, fold change vs agonist alone” has its median near 0.9; the highest 2% begin near 2.8. The list shows a part of the results."}
{"smiles": "O=C(/C=C/c1ccccc1)NC(NC(=S)Nc1cccc2cccnc12)C(Cl)(Cl)Cl", "note": "(stereo unspecified)", "values": [{"measurement": "IRF Lucia reporter activity", "setting": "RAW-Dual [1]; [4]", "value": 0.711}]}
{"smiles": "O=C(/C=C/c1ccccc1)NC(NC(=S)Nc1cccc2cccnc12)C(Cl)(Cl)Cl", "note": "(stereo unspecified) (library stock concentration (final ~1000-fold dilution): 10 mM)", "values": [{"measurement": "IRF Lucia reporter activity", "setting": "RAW-Dual [2]; [5]", "value": 0.649}, {"measurement": "IRF Lucia reporter activity", "setting": "RAW-Dual [2]; agonist: LPS (TLR4) 0.1 ug/mL", "value": 0.664}]}
{"smiles": "Cl.Cl.Clc1ccc(Nc2nnc(Cc3ccncc3)c3ccccc23)cc1", "values": [{"measurement": "IRF Lucia reporter activity", "setting": "RAW-Dual [1]; [4]", "value": 0.847}]}
{"smiles": "Cl.Cl.Clc1ccc(Nc2nnc(Cc3ccncc3)c3ccccc23)cc1", "note": "(library stock concentration (final ~1000-fold dilution): 10 mM)", "values": [{"measurement": "IRF Lucia reporter activity", "setting": "RAW-Dual [2]; [5]", "value": 0.738}, {"measurement": "IRF Lucia reporter activity", "setting": "RAW-Dual [2]; agonist: LPS (TLR4) 0.1 ug/mL", "value": 0.672}]}
{"smiles": "Fc1ccc(Cl)cc1-c1nc(Nc2ccncc2)c2nccnc2n1", "note": "(library stock concentration (final ~1000-fold dilution): 10 mM)", "values": [{"measurement": "IRF Lucia reporter activity", "setting": "RAW-Dual [2]; [5]", "value": 0.7}, {"measurement": "IRF Lucia reporter activity", "setting": "RAW-Dual [2]; agonist: LPS (TLR4) 0.1 ug/mL", "value": 1.14}]}
{"smiles": "C[n+]1cc2c3c(ccc2c2ccc4cc5c(cc4c21)OCO5)OCO3", "values": [{"measurement": "IRF Lucia reporter activity", "setting": "RAW-Dual [1]; [6]", "value": 0.0204}]}
{"smiles": "C[n+]1cc2c3c(ccc2c2ccc4cc5c(cc4c21)OCO5)OCO3", "note": "(library stock concentration (final ~1000-fold dilution): 10 mM)", "values": [{"measurement": "IRF Lucia reporter activity", "setting": "RAW-Dual [3]; [5]", "value": "0.0185 and 0.014"}, {"measurement": "IRF Lucia reporter activity", "setting": "RAW-Dual [3]; agonist: LPS (TLR4) 0.1 ug/mL", "value": "0.021 and 0.0137"}]}
{"smiles": "Cc1cc(C)c(Nc2ccnc(Nc3ccc(C#N)cc3)n2)c(C)c1", "values": [{"measurement": "IRF Lucia reporter activity", "setting": "RAW-Dual [1]; [6]", "value": 1.7}]}
{"smiles": "Cc1cc(C)c(Nc2ccnc(Nc3ccc(C#N)cc3)n2)c(C)c1", "note": "(library stock concentration (final ~1000-fold dilution): 10 mM)", "values": [{"measurement": "IRF Lucia reporter activity", "setting": "RAW-Dual [3]; [5]", "value": 0.691}, {"measurement": "IRF Lucia reporter activity", "setting": "RAW-Dual [3]; agonist: LPS (TLR4) 0.1 ug/mL", "value": 0.81}]}
{"smiles": "O=C(c1ccc(Nc2nccc(-c3cc4ccccc4s3)n2)cc1)N1CCC(N2CCCC2)CC1", "values": [{"measurement": "IRF Lucia reporter activity", "setting": "RAW-Dual [1]; [6]", "value": "0.431 ± 0.58"}]}
{"smiles": "O=C(c1ccc(Nc2nccc(-c3cc4ccccc4s3)n2)cc1)N1CCC(N2CCCC2)CC1", "note": "(library stock concentration (final ~1000-fold dilution): 10 mM)", "values": [{"measurement": "IRF Lucia reporter activity", "setting": "RAW-Dual [3]; [5]", "value": "0.0152 and 0.00671"}, {"measurement": "IRF Lucia reporter activity", "setting": "RAW-Dual [3]; agonist: LPS (TLR4) 0.1 ug/mL", "value": "0.0151 and 0.00623"}]}
{"smiles": "Cc1nn(-c2ccccc2)c(C)c1/C=N/N1CCN(Cc2ccccc2)CC1", "values": [{"measurement": "IRF Lucia reporter activity", "setting": "RAW-Dual [1]; [4]", "value": 1.01}]}
{"smiles": "Cc1nn(-c2ccccc2)c(C)c1/C=N/N1CCN(Cc2ccccc2)CC1", "note": "(library stock concentration (final ~1000-fold dilution): 10 mM)", "values": [{"measurement": "IRF Lucia reporter activity", "setting": "RAW-Dual [2]; [5]", "value": 0.981}, {"measurement": "IRF Lucia reporter activity", "setting": "RAW-Dual [2]; agonist: LPS (TLR4) 0.1 ug/mL", "value": 1.44}]}
{"smiles": "O=c1cc(-c2ccc(O)c(O)c2)oc2cc(OC3OC(CO)C(O)C(O)C3O)cc(O)c12", "note": "(stereo unspecified) (library stock concentration (final ~1000-fold dilution): 10 mM)", "values": [{"measurement": "IRF Lucia reporter activity", "setting": "RAW-Dual [2]; [5]", "value": 0.883}, {"measurement": "IRF Lucia reporter activity", "setting": "RAW-Dual [2]; agonist: LPS (TLR4) 0.1 ug/mL", "value": 0.857}]}
{"smiles": "O=c1[nH]c(=O)n(C2CC(O)C(CO)O2)cc1F", "note": "(stereo unspecified)", "values": [{"measurement": "IRF Lucia reporter activity", "setting": "RAW-Dual [1]; [6]", "value": 0.911}]}
{"smiles": "O=c1[nH]c(=O)n(C2CC(O)C(CO)O2)cc1F", "note": "(stereo unspecified) (library stock concentration (final ~1000-fold dilution): 10 mM)", "values": [{"measurement": "IRF Lucia reporter activity", "setting": "RAW-Dual [3]; [5]", "value": 0.79}, {"measurement": "IRF Lucia reporter activity", "setting": "RAW-Dual [3]; agonist: LPS (TLR4) 0.1 ug/mL", "value": 0.787}]}
{"smiles": "COc1ccc(C(=O)C=Cc2cc(OC)c(OC)c(OC)c2)cc1OC", "note": "(library stock concentration (final ~1000-fold dilution): 20 mM)", "values": [{"measurement": "IRF Lucia reporter activity", "setting": "RAW-Dual [3]; [5]", "value": 0.0429}, {"measurement": "IRF Lucia reporter activity", "setting": "RAW-Dual [3]; agonist: LPS (TLR4) 0.1 ug/mL", "value": 0.019}]}
{"smiles": "CCCCNc1ncc2c(-c3ccc(CN4CCN(C)CC4)cc3)cn(C3CCC(O)CC3)c2n1.Cl", "note": "(stereo unspecified) (library stock concentration (final ~1000-fold dilution): 10 mM)", "values": [{"measurement": "IRF Lucia reporter activity", "setting": "RAW-Dual [3]; [5]", "value": 0.0105}, {"measurement": "IRF Lucia reporter activity", "setting": "RAW-Dual [3]; agonist: LPS (TLR4) 0.1 ug/mL", "value": 0.0286}]}
{"smiles": "CCCCNc1ncc2c(-c3ccc(CN4CCN(C)CC4)cc3)cn(C3CCC(O)CC3)c2n1.Cl", "note": "(stereo unspecified)", "values": [{"measurement": "IRF Lucia reporter activity", "setting": "RAW-Dual [1]; [6]", "value": 0.0204}]}
{"smiles": "CN1CCN(C(=O)C2C3CCC(O3)C2C(=O)O)CC1", "note": "(stereo unspecified)", "values": [{"measurement": "IRF Lucia reporter activity", "setting": "RAW-Dual [1]; library stock concentration (final ~1000-fold dilution): 10 mM water, cytotoxicity flag (confluency mask): not cytotoxic", "value": 1.47}]}
{"smiles": "CN1CCN(C(=O)C2C3CCC(O3)C2C(=O)O)CC1", "note": "(stereo unspecified) (library stock concentration (final ~1000-fold dilution): 10 mM water)", "values": [{"measurement": "IRF Lucia reporter activity", "setting": "RAW-Dual [2]; [5]", "value": 1.33}, {"measurement": "IRF Lucia reporter activity", "setting": "RAW-Dual [2]; agonist: LPS (TLR4) 0.1 ug/mL", "value": 1.04}]}
{"smiles": "COc1ccc(S(=O)(=O)Nc2cc(-c3c(O)ccc4ccccc34)c(O)c3ccccc23)cc1", "note": "(library stock concentration (final ~1000-fold dilution): 10 mM)", "values": [{"measurement": "IRF Lucia reporter activity", "setting": "RAW-Dual [2]; [5]", "value": 0.202}, {"measurement": "IRF Lucia reporter activity", "setting": "RAW-Dual [2]; agonist: LPS (TLR4) 0.1 ug/mL", "value": 0.493}]}
{"smiles": "COc1ccc(CC2c3cc(OC)c(OC)cc3CC[N+]2(C)CCC(=O)OCCCCCOC(=O)CC[N+]2(C)CCc3cc(OC)c(OC)cc3C2Cc2ccc(OC)c(OC)c2)cc1OC.O=S(=O)([O-])c1ccccc1.O=S(=O)([O-])c1ccccc1", "note": "(stereo unspecified)", "values": [{"measurement": "IRF Lucia reporter activity", "setting": "RAW-Dual [1]; [4]", "value": 0.627}]}
{"smiles": "COc1ccc(CC2c3cc(OC)c(OC)cc3CC[N+]2(C)CCC(=O)OCCCCCOC(=O)CC[N+]2(C)CCc3cc(OC)c(OC)cc3C2Cc2ccc(OC)c(OC)c2)cc1OC.O=S(=O)([O-])c1ccccc1.O=S(=O)([O-])c1ccccc1", "note": "(stereo unspecified) (library stock concentration (final ~1000-fold dilution): 10 mM)", "values": [{"measurement": "IRF Lucia reporter activity", "setting": "RAW-Dual [2]; [5]", "value": 0.744}, {"measurement": "IRF Lucia reporter activity", "setting": "RAW-Dual [2]; agonist: LPS (TLR4) 0.1 ug/mL", "value": 0.902}]}
{"smiles": "O=C(O)C(O)Cc1ccc(O)c(O)c1", "note": "(stereo unspecified) (library stock concentration (final ~1000-fold dilution): 10 mM)", "values": [{"measurement": "IRF Lucia reporter activity", "setting": "RAW-Dual [2]; [5]", "value": 1.01}, {"measurement": "IRF Lucia reporter activity", "setting": "RAW-Dual [2]; agonist: LPS (TLR4) 0.1 ug/mL", "value": 0.964}]}
{"smiles": "O=C(O)C(O)Cc1ccc(O)c(O)c1", "note": "(stereo unspecified)", "values": [{"measurement": "IRF Lucia reporter activity", "setting": "RAW-Dual [1]; [4]", "value": 1.02}]}
{"smiles": "CCN(CC)CCOC(=O)C(c1ccccc1)C1CCCCC1.Cl", "note": "(stereo unspecified) (library stock concentration (final ~1000-fold dilution): 10 mM)", "values": [{"measurement": "IRF Lucia reporter activity", "setting": "RAW-Dual [3]; [5]", "value": 0.604}, {"measurement": "IRF Lucia reporter activity", "setting": "RAW-Dual [3]; agonist: LPS (TLR4) 0.1 ug/mL", "value": 1.07}]}
{"smiles": "CCN(CC)CCOC(=O)C(c1ccccc1)C1CCCCC1.Cl", "note": "(stereo unspecified)", "values": [{"measurement": "IRF Lucia reporter activity", "setting": "RAW-Dual [1]; [6]", "value": 1.39}]}
{"smiles": "Oc1ccc(OC2CCCCO2)cc1", "note": "(stereo unspecified) (library stock concentration (final ~1000-fold dilution): 10 mM)", "values": [{"measurement": "IRF Lucia reporter activity", "setting": "RAW-Dual [2]; [5]", "value": 0.916}, {"measurement": "IRF Lucia reporter activity", "setting": "RAW-Dual [2]; agonist: LPS (TLR4) 0.1 ug/mL", "value": 1.06}]}
